Test results taken from the supplement of paper PMC7826260.
This is one part of the list. Each Rep nickase domain was tested in vitro on the same pool of single strands at 3 µM enzyme and 37 °C for 1 h; the strands have 90 letters, of which the middle is given. Numbers give uncut DNA relative to the enzyme-free pool, as log2; the lower, the more was cut; hits are not called. The scaling is to total reads, so uncut sequences can rise above 0 when many others are cut.

The sequences below were run on T1, Rep nickase domain of tomato golden mosaic virus (assay: uncleaved DNA left, log2 of reads against the no-enzyme library (log2 ratio); higher = less cleavage (more negative = more Rep cleavage of the k-mer); sequences stand for … in CTCGTCCG…ACCGGAGA).
T1 sequence (residues 1-124, tag not shown): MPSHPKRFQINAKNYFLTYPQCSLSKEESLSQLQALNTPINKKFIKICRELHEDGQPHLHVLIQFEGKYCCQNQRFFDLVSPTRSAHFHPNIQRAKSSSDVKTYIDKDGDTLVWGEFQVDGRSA
Experimental: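 A pool of 90-nt single-stranded DNAs with seven random bases just before the constant AC of the nick site (name = the seven bases) was cut by 3 µM recombinant His6-SUMO-tagged Rep nickase domain (300 nM DNA, 50 mM HEPES pH 8.0, 50 mM NaCl, 1 mM MnCl2, 1 h, 37 °C, three replicates). Uncut DNA was amplified and sequenced.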

Row | Sequence | uncleaved DNA left (log2)
1 | CCCCTCG | -0.0655
2 | CACTAAT | -0.232
3 | TGCAAGC | 0.0498
4 | ACTATAG | -0.0513
5 | TTAACCG | -0.0261
6 | GACATGG | 0.105
7 | GGACTTA | -0.155
8 | CAAGGCG | 0.112
9 | GCTCAAA | -0.0578
10 | ATACAAA | -0.0591
11 | CACAGGA | 0.115
12 | AAGGTCG | -0.00705
13 | CACCTTA | 0.028
14 | TCACAAC | -0.0913
15 | AGGCAAT | 0.0163
16 | CGTAAGA | 0.0515
17 | TTGAGTC | -0.0773
18 | CATACGT | -0.0572
19 | ATGTAAA | 0.167
20 | TCGAGCG | 0.124

Row | Sequence | uncleaved DNA left (log2)
21 | GCCGGCT | -0.0521
22 | GGATGTA | -0.0362
23 | CCTAGTA | 0.059
24 | CGGACGT | -0.0222
25 | CCACACC | -0.0319
26 | CGTGGGA | 0.0705
27 | CGCTTTT | 0.0127
28 | GTTCACA | 0.0421
29 | AGAATCA | 0.0616
30 | TGTATTT | -0.0133
31 | ACCGCTA | -0.0117
32 | TATGCGA | -0.127
33 | TGGAGCT | -0.0396
34 | ATTAGTC | -0.0452
35 | GGAGATA | 0.092
36 | CTCATCG | 0.0175
37 | CTTCTTG | -0.0487
38 | CCACGCA | -0.128
39 | TCGTAGC | -0.0481
40 | CGCCGCT | -0.0653
